# Assay results: PMC12136788
# Some of the results follow.
# T1: UNK ZnF1-3 (human, UniProt Q9C0B0 31-174)
# T1 sequence: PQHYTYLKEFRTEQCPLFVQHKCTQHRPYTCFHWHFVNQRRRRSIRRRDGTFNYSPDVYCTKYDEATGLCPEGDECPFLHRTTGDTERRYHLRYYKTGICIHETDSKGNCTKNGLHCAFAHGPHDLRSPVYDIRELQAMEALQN
# B1: 76554335_76554455_2282_3pUTR_ENSMUSG00000021051_ENSMUST00000021447|mouse|control|control (ssRNA)
# RNA: GGGAGUUCUACAGUCCGACGAUCAGAUUGUUCACAUUUGAAAAUUGUAUCAUACUCUCUGCUAGUGAUAAAUAAGGAACUCCUGAUAAUGGAAUUUUAACAUAGCAAUUUCCCCGACAGAUCUCUGUAGACCUUUUGUUUGUUCAACAGAGGAUUGAGCAUCA
# B2: chrX:98862621:98862622:+_ENSMUSG00000034160_ENSMUST00000044475|mus_hu|mus_mus_mus_hu_False|48_48 (ssRNA)
# RNA: GGGAGUUCUACAGUCCGACGAUCCUGCAUCUCCUUUAGAGUGUUUCCCAUAUUAGAGUAGGCAUCAGCAAAGGUAGGACUGAUUCGUAUGGCUUCUUUAUAAUGCAUCAGAGCUUCCUGCAGUUUUCCCUGCUGCUGCAGUACCAACAGAGGAUUGAGCAUCA
# B3: chr18:43664530:43664531:-_ENSG00000152234_ENST00000398752|hu_mus|FALSE|FALSE (ssRNA)
# RNA: GGGAGUUCUACAGUCCGACGAUCAUUGCCCAAGAGGGACUGGUGCUGGCUGAUAACGUGAGACAAGAAAGCAUUCUCAAACUUUGUGAUCUUGCUGGGCUCCAGUUUGUCAAGAUAACCCCGUACACCCGCAUAGAUAACAGCCAACAGAGGAUUGAGCAUCA
# B4: chr12:93870747:93870748:+_ENSG00000198015_ENST00000552217|hu_mus|FALSE|FALSE (ssRNA)
# RNA: GGGAGUUCUACAGUCCGACGAUCGUCCACCUGGCAAUUGUAGUCAUCCGGAAGAGAAGAGUAUGUGGAUUUGUGACAAGCACUAGACAAAGCUCCGUUUUGGAUUGGAAGUAAAUGCUUCCAGAUAGUUCUGUUUGAUAUCGCCAACAGAGGAUUGAGCAUCA
# B5: chr6:74354288:74354289:-_ENSG00000119899_ENST00000355773|hu_hu|FALSE|FALSE (ssRNA)
# RNA: GGGAGUUCUACAGUCCGACGAUCACUCAGAUUCACACGUAAUGCAUACACAAUGAAGAAACCAAAAAAGGCCAAAAUUGCUAAGUUGUAACGAGCAGAGCAGCACACUGGAGCGGCUUCGGCCCGUGGGGCGCCCGGUAGAAGCAACAGAGGAUUGAGCAUCA
# B6: 140258100_140262179_621_3pUTR_ENSG00000164134_ENST00000296543|human|control|control (ssRNA)
# RNA: GGGAGUUCUACAGUCCGACGAUCGGUCCCUUAAGAUUUGAAGAUUGUCUUUAUCCCAUUUUAGUGCAUUUCUGUAACACUUAAUGGCUUCAUCAUACUUCUUGUCUGACCUCUGAAGAAGGCCAUAAACGUGCCAACACACAUCAACAGAGGAUUGAGCAUCA
# B7: chr12:16048344:16048345:+_ENSG00000023734_ENST00000419869|hu_hu|hu_hu_hu_mus_True|1_1 (ssRNA)
# RNA: GGGAGUUCUACAGUCCGACGAUCAGAUCGUCCAUAAGUAAUAACCAAAAUCUCUCCUUCAGGAAUAUACUCCAUGCUGCUAACAGACAUAUUAAAAUUCAGAGAUUUCACUUCUGUCAUUGUGGCAUGAUCCCAGAGUCGAACCAACAGAGGAUUGAGCAUCA
# B8: 87816543_87856848_158_5pUTR_ENSMUSG00000022019_ENSMUST00000168275|mouse|control|control (ssRNA)
# RNA: GGGAGUUCUACAGUCCGACGAUCAAAGGUACCAACCCGCCUGGGACAACGCGGCGCCGGACACCUCGGCCAUGGUUAGCUGUUCAGGCUCGGGGACGGCGGGGGUCUGAACUGAGGGUGGGGGACGGGCCUCCUACUGGAGACCAACAGAGGAUUGAGCAUCA
# B9: chr17:57761033:57761034:+_ENSG00000141367_ENST00000269122|hu_hu|FALSE|FALSE (ssRNA)
# RNA: GGGAGUUCUACAGUCCGACGAUCAUCCAACCGUGGAGACAGCACCAUCAGCAAAUCAUUUAACAACAGAGGCUUGAAUUCUAAGUAGAACUGUAUUGCUCUGUAGUAUAGUUCCACAUUGGCAACCUUGGUAAUGAUAUCUUUCAACAGAGGAUUGAGCAUCA
# B10: chr2:39278355:39278356:-_ENSG00000115904_ENST00000402219|hu_hu|FALSE|FALSE (ssRNA)
# RNA: GGGAGUUCUACAGUCCGACGAUCGCAGCUUCCUACUAGUGGAUGGGGACUGCCUUCAUCUGUCAUUUCUACUGUAUCUUCUAUAUGGCCCAGUAACUUUACACUAAGUUCAUGUAUAUCUACUAUGCGACUAAAUAUAUUUUCCAACAGAGGAUUGAGCAUCA
# B11: 6292883_6306143_117_3pUTR_ENSMUSG00000028249_ENSMUST00000103008|mouse|control|control (ssRNA)
# RNA: GGGAGUUCUACAGUCCGACGAUCUGGCGGGAUUGGCAGAAUAAGCAGUUUGAGCCUGAAUUACUUUGUCUACCUUCAAAUCUUCAAGAGAUGGAUAAAGAGACAUUUCUGCAGAUAUUUUCUGCCCCGAGGACCGCGCCGCUCCAACAGAGGAUUGAGCAUCA
# B12: chr9:19447105:19447106:+_ENSMUSG00000057551_ENSMUST00000079042|mus_mus|FALSE|FALSE (ssRNA)
# RNA: GGGAGUUCUACAGUCCGACGAUCUAGGUGUGAGAUGAGGCGGGGUUUGCCAACCUGAUAACCCAGUGAACUUAGAUUGCUAUAAUUCUCCAGCAUUACAUCUUUGUACAGUUUUCUCUGGGAAGAAUCUAGCAGGGGCCACUCCAACAGAGGAUUGAGCAUCA
# B13: chrX:100668114:100668115:+_ENSG00000126945_ENST00000316594|hu_hu|FALSE|FALSE (ssRNA)
# RNA: GGGAGUUCUACAGUCCGACGAUCUCCCAUCAUUUGGCUACCAUAAGCGCCACCACUUGCCCCUGCUGUAGAAUUCAAAAAAAGUUCUACAUAGCUGUGAUCGUAAGCACCCCCACUUGUUCCUGCAGUAGAAUUUAAGAAGAGCAACAGAGGAUUGAGCAUCA
# B14: chrX:71025408:71025409:-_ENSMUSG00000002010_ENSMUST00000052761|mus_mus|FALSE|FALSE (ssRNA)
# RNA: GGGAGUUCUACAGUCCGACGAUCGAAUACUGCAUACACAUGGCCAUAGUUGGCCCCAGCCACAAGGCCUGGGCCUCCAACUAGCCCUGCACAGACGUUGUUGACAAUGUUACCAUAGAGAUUAGGCAUCACCAUGACAUCAAACAACAGAGGAUUGAGCAUCA
# B15: chr19:16212804:16212805:+_ENSG00000167460_ENST00000300933|hu_mus|hu_hu_hu_mus_False|1_58 (ssRNA)
# RNA: GGGAGUUCUACAGUCCGACGAUCAACAAUUCUGGAGUGAAGGAAAGAUGUAACAUGGAACAGCAUUAAAGCUCAGUAUUACUAUAUAUGGGCAACAAUGAUCACCCCAGCAUUCUCGCUUGGAAUGCUUAAAGACAGAUGUUUCAACAGAGGAUUGAGCAUCA
# B16: chr14:89307221:89307222:+_ENSG00000165533_ENST00000346301|hu_mus|hu_hu_hu_mus_False|58_88 (ssRNA)
# RNA: GGGAGUUCUACAGUCCGACGAUCUCCUGUUUGGUUAGUGCCAGGGAGUUUCAAAGAUGUGCCAGGGCGUGGGACCUGAGCUAUAGCAUUUUCAUCCAGGAUCAUUUCAGCAAUUCCUUCCUGGUCCACAUCAAUUUCAUCUAUCAACAGAGGAUUGAGCAUCA
# B17: chr6:38652254:38652255:-_ENSG00000124767_ENST00000373365|hu_hu|hu_hu_hu_mus_False|68_78 (ssRNA)
# RNA: GGGAGUUCUACAGUCCGACGAUCCGAGAACUUCAUAGCAGGGAAGUCAAGCUUCUGGAUUAGCGUCAUUCCAAGAACCCUCGUAUAAAAAUCCAGGGACUUCUUAGGAUCCUUAAUUCUUAGCAUCGUUUGCUGCAGUAGAAACAACAGAGGAUUGAGCAUCA
# B18: chr12:85022504:85022505:+_ENSMUSG00000010608_ENSMUST00000048155|mus_mus|motif|central (ssRNA)
# RNA: GGGAGUUCUACAGUCCGACGAUCCACAAGGCCAAUUUUCUUGGCUUCUGUUUCAUAUAUCAAUAAUCUCCACAUUUUGACGGUAAAAACUUCUGCUUCUUCAUCUAGUACCAUGGCAACAUCAUCUAAAAUGCUCUGUGGUGACAACAGAGGAUUGAGCAUCA
# B19: chr14:103931940:103931941:+_ENSG00000075413_ENST00000216288|hu_hu|motif|central (ssRNA)
# RNA: GGGAGUUCUACAGUCCGACGAUCACAAAACGUGUCGAGUUUACCGCCAACAGUAAAUUCAUUGCUAAAACCGAAAUCUGCGGUUUUAAUGUUCAUAUCGGCAUCUAACAAUAGAUUUUCAGCCUUGAGGUCUCGAUGUACGAUCAACAGAGGAUUGAGCAUCA
# B20: chrX:140365796:140365797:-_ENSMUSG00000031285_ENSMUST00000033642|mus_mus|mus_mus_mus_hu_False|8_98 (ssRNA)
# RNA: GGGAGUUCUACAGUCCGACGAUCCUUCUCAUUACUCAAUGCCUGCAAGGUUCUGGUUCGGUAGAAGCUACAGUGGGCGCUGUGAGUGGGGCUAGGCAACCCAUUCAUCCGGGAGCCUCGCAUGUUCCUAGAUGCUUUAUCUCUCAACAGAGGAUUGAGCAUCA
# B21: chr8:117878989:117878990:-_ENSG00000164754_ENST00000297338|hu_hu|hu_hu_hu_mus_True|8_68 (ssRNA)
# RNA: GGGAGUUCUACAGUCCGACGAUCCCAGAGGCCCUCGUUUACUGAGGACAAAAUGUGCGUAGAACAUUGUUCUGGCUUGCUAUGAAAUAAGAAGAAACCUGGAUCUCGGCGGGGAGCCGGGAGGGGUUGGGUGGCCCGGGAGGGCAACAGAGGAUUGAGCAUCA
# B22: 10871457_10871577_264_CDS_ENSMUSG00000090112_ENSMUST00000044053|mouse|control|control (ssRNA)
# RNA: GGGAGUUCUACAGUCCGACGAUCACAGGCCUGUUCCCCGACCGUCAUGGUGAGCGGCUCACUCCUCAGGUCCUCAUGCAUGUUCCAGUGAAGCUGCUGUUGCCUUUCUUCAUCGACCUUCAUCGGGGGAGCACGUUUCCUUCGCAACAGAGGAUUGAGCAUCA
# Target: T1, UNK ZnF1-3
# Test: nsRBNS (natural sequence RNA bind-n-seq); RBNS binding buffer (assumed for nsRBNS): 25 mM Tris pH 7.5, 150 mM KCl, 3 mM MgCl2, 0.01% Triton X-100, 500 ug/ml BSA, 20 U/ml SUPERase-In, 4 C; UNK is unkempt and MSI1 is Musashi-1; names of the RNAs are library labels; protein concentration not given here; high values mean tight binding
row,Binder,binding signal
1,B1,0.99 enrichment R
2,B2,1.37 enrichment R
3,B3,1.4 enrichment R
4,B4,1.2 enrichment R
5,B5,1.33 enrichment R
6,B6,0.526 enrichment R
7,B7,1.2 enrichment R
8,B8,1.18 enrichment R
9,B9,2.13 enrichment R
10,B10,0.626 enrichment R
11,B11,1.67 enrichment R
12,B12,0.735 enrichment R
13,B13,2 enrichment R
14,B14,1.09 enrichment R
15,B15,1.33 enrichment R
16,B16,0.879 enrichment R
17,B17,1.28 enrichment R
18,B18,0.989 enrichment R
19,B19,0.583 enrichment R
20,B20,0.752 enrichment R
21,B21,1.48 enrichment R
22,B22,0.524 enrichment R
